Results published in paper PMC4336329 (PLoS ONE, 2015).
The campaign covered roughly 310,000 compounds. About 2,200 (0.71%) showed an effect of 50% or more. The effect is printed as a negative number. The list shows a part of the results.

Biological target: human ether-à-go-go-related gene (hERG) potassium channel (human, UniProt Q12809)
Assay: primary screen, population patch clamp on CHO cells stably expressing hERG

Sequence of human ether-à-go-go-related gene (hERG) potassium channel (Q12809 whole entry, looked up): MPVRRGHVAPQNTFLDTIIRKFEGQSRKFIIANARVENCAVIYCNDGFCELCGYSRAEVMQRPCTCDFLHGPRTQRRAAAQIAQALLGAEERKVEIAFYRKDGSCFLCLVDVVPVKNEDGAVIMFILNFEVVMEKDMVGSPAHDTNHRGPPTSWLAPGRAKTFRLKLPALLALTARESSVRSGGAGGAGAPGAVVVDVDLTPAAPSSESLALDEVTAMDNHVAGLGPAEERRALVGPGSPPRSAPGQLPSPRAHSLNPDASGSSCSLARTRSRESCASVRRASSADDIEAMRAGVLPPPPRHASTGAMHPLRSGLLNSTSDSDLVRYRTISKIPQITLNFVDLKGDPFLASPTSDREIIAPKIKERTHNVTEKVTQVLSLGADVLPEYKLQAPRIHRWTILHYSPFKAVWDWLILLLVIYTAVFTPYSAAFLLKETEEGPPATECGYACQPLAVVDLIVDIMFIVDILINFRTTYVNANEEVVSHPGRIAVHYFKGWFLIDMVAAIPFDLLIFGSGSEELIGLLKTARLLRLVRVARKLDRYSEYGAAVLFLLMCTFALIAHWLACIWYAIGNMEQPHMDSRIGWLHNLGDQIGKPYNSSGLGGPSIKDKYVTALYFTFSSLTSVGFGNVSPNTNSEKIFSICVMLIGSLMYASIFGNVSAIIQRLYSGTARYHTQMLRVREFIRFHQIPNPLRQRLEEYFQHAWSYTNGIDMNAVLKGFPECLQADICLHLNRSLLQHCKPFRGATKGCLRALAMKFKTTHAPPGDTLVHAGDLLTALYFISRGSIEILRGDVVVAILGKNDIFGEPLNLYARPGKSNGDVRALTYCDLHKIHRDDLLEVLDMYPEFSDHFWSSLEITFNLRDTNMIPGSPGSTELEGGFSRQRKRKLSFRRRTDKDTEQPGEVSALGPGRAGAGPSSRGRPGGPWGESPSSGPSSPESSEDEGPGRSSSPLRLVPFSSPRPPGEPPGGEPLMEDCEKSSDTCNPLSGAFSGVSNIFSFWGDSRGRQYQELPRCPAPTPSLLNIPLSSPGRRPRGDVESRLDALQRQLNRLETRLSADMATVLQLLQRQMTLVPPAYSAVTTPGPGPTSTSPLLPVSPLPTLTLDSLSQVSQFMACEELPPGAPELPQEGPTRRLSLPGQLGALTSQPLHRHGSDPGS

SMILES	hERG current change (%, negative = inhibition) at 1uM
COc1ccccc1N(CC(=O)Nc1cc(C)on1)S(=O)(=O)c1cccc(C(F)(F)F)c1	0.88%
CCC[C@@H](OS(N)(=O)=O)[C@@H](Cc1ccccc1)C(=O)OCC	-1.64%
CCOC(=O)C(Cc1ccccc1)C(=O)NCc1cccnc1 (stereo not drawn)	14.7%
COc1ccc(/C=C/C(=O)N2CCN(C)CC2)cc1S(=O)(=O)N1CCCCC1	14.4%
COc1ccc(-c2nc3nc(SC)nn3cc2C)cc1F	2.46%
COc1ccc(CNC(=O)c2cc3cccc(O)c3oc2=N)cc1	14.6%
CCS(=O)(=O)c1ccc2oc(SCC(=O)NC34CC5CC(CC(C5)C3)C4)nc2c1	-1.41%
COc1ccc2cc(C(=O)N3CCN(Cc4ccc5c(c4)OCO5)CC3)[nH]c2c1	7.86%
CCc1ccc([C@@H]2CC=C(C(=O)O)[C@H](c3cccc(Cl)c3)N2S(=O)(=O)c2ccc(C)cc2)cc1	17.4%
CNc1c(NS(=O)(=O)c2ccc(Cl)s2)c(=O)oc2ccccc12	11.2%
Cc1ccc(Sc2ccncc2S(N)(=O)=O)cc1	6.44%
CC(=O)c1ccc(NC(=O)Cn2nc(C)c([N+](=O)[O-])c2C)cc1	11.3%
CCOP(=O)(c1c(F)c(F)c(F)c(F)c1F)C1(O)CCCCC1 (stereo not drawn)	2.85%
Cc1ccc(S(=O)(=O)Oc2cccc(/C=N/Nc3ccc(C(=O)O)cc3)c2)cc1	4.12%
COc1nc(NCCN2CCOCC2)nc(Nc2ccccc2)n1	-15.6%
O=C(NCC1OCCc2ccccc21)c1ccc(NC(=O)c2ccc(Cl)cc2Cl)cc1 (stereo not drawn)	10.7%
CNC(C)C#Cc1ccc2oc3cc(C)c(C)cc3c(=O)c2c1 (stereo not drawn)	12.1%
Cl.c1ccc(-c2nc(NCC3CCCO3)c3oc4ccccc4c3n2)cc1 (stereo not drawn)	-5.01%
Cc1ccc(NC(=O)C2CC(=O)N(CCc3ccccc3)C2)c(C)c1 (stereo not drawn)	2.1%
CC(C)(C)n1nnnc1C(c1cccs1)N(Cc1ccc(Cl)cc1)CC1CCCO1 (stereo not drawn)	-2.4%
COCC(C)n1c(SCC(=O)NC(=O)NC2CCCC2)nc2ccccc2c1=O (stereo not drawn)	5.86%
O=C(NCc1ccco1)C1CCN(S(=O)(=O)N2CCOCC2)CC1	2.3%
Cc1ccc(C(=O)N2CCC3(CC2)Oc2ccc(Cl)cc2C(=O)C32CC(c3cccnc3)=NO2)s1 (stereo not drawn)	3.11%
CCOC(=O)C1CCN(c2ncnc3c2cnn3-c2ccccc2)CC1	-10.7%
Clc1cccc(-c2nnc(-c3ccccc3)o2)c1	4.06%
CC(C)C(=O)NCCCc1ccccc1	11.7%
Cc1ccc2c(CC(=O)NCC(C)(C)N3CCOCC3)coc2c1	6.91%

SMILES	hERG current change (%, negative = inhibition) at 1uM
CCc1ccc(OC(C)C(=O)Nc2ccc(S(=O)(=O)Nc3cc(C)on3)cc2)cc1 (stereo not drawn)	11.6%
Cc1noc(C)c1COC(=O)[C@@H](NC(=O)c1ccccc1Cl)C(C)C	12.6%
O=[N+]([O-])c1cccc(S(=O)(=O)NCCOc2cccc3cccnc23)c1	10.9%
O=C(NC(Cc1c[nH]c2ccccc12)C(=O)O)/C(=C/c1ccc(F)cc1)NC(=O)c1ccccc1 (stereo not drawn)	3.84%
O=C(c1ccc(-c2cc(Cl)ccc2Cl)o1)N1CCOCC1	3.23%
Cc1ccc(C(=O)N/C(=C/c2ccc(-c3cccc([N+](=O)[O-])c3)o2)C(=O)NC(C)(C)C)cc1	-0.682%
CCOc1cnn(Cc2ccccc2)c(=O)c1SCc1ccccc1	-4.38%
Cc1ccc(-c2nnn(CC(=O)N(c3ccccc3)C(C(=O)NC3CCCC3)c3ccncc3)n2)o1 (stereo not drawn)	12.9%
Nc1nc(Cl)nc2c1ncn2C1CC(O)C(CO)O1 (stereo not drawn)	16.9%
CC1CCN(C(=O)C2CCC(CNS(=O)(=O)c3cccc4cccnc34)CC2)CC1 (stereo not drawn)	11%
COc1ccc(S(=O)(=O)N2CCC(C(=O)N[C@H](C(=O)N3CCCC3)C(C)C)CC2)cc1	12.5%
COc1cc(C(C(=O)Nc2c(C)cccc2C)N(C)C(=O)c2ccc(-n3cnnn3)cc2)ccc1O (stereo not drawn)	-20.6%
N#CC1(c2ccccc2)CCN(S(=O)(=O)c2ccc(OC(F)(F)F)cc2)CC1	11.6%
Nc1nc(SCC(=O)NCCc2ccccc2)[nH]c(=O)c1-c1ccccc1	13.7%
Cc1ccc(Oc2ncnc(N)c2[N+](=O)[O-])cc1C	17.6%
Cc1c(Cl)cccc1NC(=O)c1cccc(OC(F)F)c1	-3.05%
O=C(NCCN1CCOCC1)c1ccc(Cl)c(S(=O)(=O)N2CCCC2)c1	8.01%
OCC1(CCOc2ccccc2)CCN(CCCn2cccn2)CC1	-43.3%
O=C(c1ccc2c(c1)OCCO2)C1CCN(C(=O)c2ccc(F)cc2)CC1	4.28%
CC1CN(C)C(C)c2c1oc1ccc([N+](=O)[O-])cc21 (stereo not drawn)	2.24%
COc1cc(OC)c(OC)cc1/C=C1\Oc2cc(OS(C)(=O)=O)ccc2C1=O	0.261%
CCOc1cc(/C=N/NC(=O)c2nn(C)cc2Br)ccc1OCc1ccccc1Cl	-1.64%
CCCCN1C(N)=NC[C@@H]1CC1CCCCC1	8.96%
O=C1/C(=C/c2ccco2)SC(=S)N1C1CCS(=O)(=O)C1 (stereo not drawn)	10.4%
O=C(O)CSc1nnc(COc2cccc3ccccc23)o1	16%
COc1ccc(CCNS(=O)(=O)c2cnc(Cl)c(Br)c2)cc1OC	17.3%
CC(=O)NCCCC(=O)NN1C(=S)N(Cc2ccccc2)C(=O)C1CC(=O)Nc1cccc(C)c1 (stereo not drawn)	7.75%
